These are yes or no findings as the source states them, for the method shown. For part of these data: Binding seen in cells or lysates may run through a third protein. Some results given as binding are weak or reduced against the parent protein; the word gives no strength. Where a sequence is shown, tags or fusion partners need not be part of it. Blank lines part the entries; values can stand above or below the binder they belong to.
Columns and labels:
[1] = target: Arabidopsis FLOWERING LOCUS T (AtFT), pBD-GAL4 Cam bait fusion (Arabidopsis), Q9SXZ2; assay: two-hybrid; yeast; X-gal filter assays; PEBP proteins as baits in pBD-GAL4 Cam, bZIP proteins as preys in pAD-GAL4; constructs of RFT1, GF14c, OsbZIP23 and OsbZIP72 (Supplementary Fig. S10) not described; details: remark: other sources report otherwise
GF14c (rice) = target: T1, GF14c (rice) (UniProt Q6ZKC0); assay: as above
T1 sequence: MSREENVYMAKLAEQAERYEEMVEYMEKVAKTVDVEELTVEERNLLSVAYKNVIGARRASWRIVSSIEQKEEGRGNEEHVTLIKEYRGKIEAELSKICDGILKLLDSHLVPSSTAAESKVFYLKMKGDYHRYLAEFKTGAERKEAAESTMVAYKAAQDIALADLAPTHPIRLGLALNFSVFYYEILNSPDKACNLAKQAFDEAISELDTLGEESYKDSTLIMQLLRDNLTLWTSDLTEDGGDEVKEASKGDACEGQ

By UniProt entry, the sequences of proteins in these tests, tags left out.
UniProt Q9SXZ2: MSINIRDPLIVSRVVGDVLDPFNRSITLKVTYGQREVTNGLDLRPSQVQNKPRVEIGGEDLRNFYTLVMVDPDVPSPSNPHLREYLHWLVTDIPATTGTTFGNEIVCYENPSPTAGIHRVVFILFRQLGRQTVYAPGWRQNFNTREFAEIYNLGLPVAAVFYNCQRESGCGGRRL
UniProt Q8VWH2: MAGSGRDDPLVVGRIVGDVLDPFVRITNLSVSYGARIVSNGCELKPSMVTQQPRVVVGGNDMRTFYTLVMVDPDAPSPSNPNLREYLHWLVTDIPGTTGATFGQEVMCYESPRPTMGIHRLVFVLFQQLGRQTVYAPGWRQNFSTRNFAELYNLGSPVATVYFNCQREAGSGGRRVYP
UniProt Q93WI9: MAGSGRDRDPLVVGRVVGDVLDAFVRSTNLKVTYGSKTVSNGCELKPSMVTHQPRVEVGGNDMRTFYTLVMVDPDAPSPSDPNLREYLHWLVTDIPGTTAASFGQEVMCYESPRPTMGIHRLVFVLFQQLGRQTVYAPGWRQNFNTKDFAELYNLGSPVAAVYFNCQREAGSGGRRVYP

[2] = target: RICE FLOWERING LOCUS T 1 (RFT1), yeast two-hybrid construct (rice) (UniProt Q8VWH2); assay: as above
[3] = target: Arabidopsis FLOWERING LOCUS T (AtFT), pBD-GAL4 Cam bait fusion (Arabidopsis) (UniProt Q9SXZ2); assay: as above
RFT1:cYFP (rice) = RFT1:cYFP (rice) (UniProt Q8VWH2); assay: split reporter; BiFC in transfected rice protoplasts; Hd3a:cYFP or RFT1:cYFP with nYFP:AtFD or nYFP:AtFDP; confocal microscopy, YFP in the nucleus
[4] = target: MBP:AtFT (Arabidopsis), Q9SXZ2; assay: pull-down; MBP-tagged proteins immobilized onto Amylose Resin, incubated with crude extract containing His-tagged proteins in 20 mM Tris pH 8.0, 1 mM EDTA, 100 mM NaCl, 0.1% NP40, 1 mM PMSF for 3 hours at 4 °C; 6 washes; western blot; only the target purified; details: remark: other sources report otherwise
MBP:Hd3a (rice) = MBP:Hd3a (rice) (UniProt Q93WI9); assay: as above
MBP:AtFT (Arabidopsis) = MBP:AtFT (Arabidopsis) (UniProt Q9SXZ2); assay: as above

B1: Arabidopsis FD (AtFD), pAD-GAL4 prey fusion, Q84JK2 1-285 (protein)
chain: MLSSAKHQRNHRLSATNKNQTLTKVSSISSSSPSSSSSSSSTSSSSPLPSQDSQAQKRSLVTMEEVWNDINLASIHHLNRHSPHPQHNHEPRFRGQNHHNQNPNSIFQDFLKGSLNQEPAPTSQTTGSAPNGDSTTVTVLYSSPFPPPATVLSLNSGAGFEFLDNQDPLVTSNSNLHTHHHLSNAHAFNTSFEALVPSSSFGKKRGQDSNEGSGNRRHKRMIKNRESAARSRARKQAYTNELELEVAHLQAENARLKRQQDQLKMAAAIQQPKKNTLQRSSTAPF
binding [1]: binds

B2: Arabidopsis FD (AtFD), pAD-GAL4 prey fusion (protein, UniProt Q84JK2 1-285)
chain: B1 chain
binding (GF14c (rice)): binds | binding [2]: binds

B4: nYFP:AtFD (protein, UniProt Q84JK2 1-285)
chain: B1 chain
binding (RFT1:cYFP (rice)): binds

B6: His-tagged AtFD, Q84JK2 1-285 (protein)
chain: B1 chain
binding [4]: binds

B8: His-tagged AtFD (protein, UniProt Q84JK2 1-285)
chain: B1 chain
binding (MBP:Hd3a (rice)): no binding

Second part, the binder after the results:

binding (GF14c (rice)): binds | binding [3]: binds | binding [2]: binds
B3: Arabidopsis FD PARALOGUE (AtFDP), pAD-GAL4 prey fusion (protein, UniProt Q7PCC6 1-234)
chain: MLSSAKHNKINNHSAFSISSSSSSLSTSSSLGHNKSQVTMEEVWKEINLGSLHYHRQLNIGHEPMLKNQNPNNSIFQDFLNMPLNQPPPPPPPPSSSTIVTALYGSLPLPPPATVLSLNSGVGFEFLDTTENLLASNPRSFEESAKFGCLGKKRGQDSDDTRGDRRYKRMIKNRESAARSRARKQAYTNELELEIAHLQTENARLKIQQEQLKIAEATQNQVKKTLQRSSTAPF

binding (RFT1:cYFP (rice)): binds
B5: nYFP:AtFDP (protein, UniProt Q7PCC6 1-234)
chain: B3 chain

binding (MBP:Hd3a (rice)): no binding | binding (MBP:AtFT (Arabidopsis)): binds
B7: His-tagged AtFDP (protein, UniProt Q7PCC6 1-234)
chain: B3 chain
